The test system of test [1] is Nectin4-HEK293 (an overexpressing cell line). Put plainly: In-vitro cell viability assay (CellTiter-Glo). In kind it is cell-based. The note with it: N4-HEK, Nectin-4 expression level +++; 6 days of incubation. An excerpt:
(§1) Exatecan and MMAE were purchased from Medchemexpress.
(In general: Cellular ATP, detected with luciferase, serves as a proxy for viable cell number.)

Test [2] concerns H322M (a lung cancer cell line). Put plainly: cells. The note with it: Homo sapiens, NCI-H322M. The protocol:
as §1
(§2) Specifically, the cell lines described in Table 5 were seeded per well in a 96-well plate and incubated at room temperature (37°C, 5% CO2). After 24 hours, the cells were treated with 100 µL of payload compounds or ADC drugs at 9 concentrations (a 4-fold serial dilution starting from 1,000 nM). In particular, a control group (drug concentration 0), which is an untreated group, was also prepared. After 6 days of incubation (37°C, 5% CO2), 100 µL of CellTiter-Glo reagent (CellTiter-Glo® Luminescent Cell Viability Assay kit (Promega, G7571)) was added to each well and pipetted. Fluorescence was measured after incubation at room temperature (RT) for 10 minutes.

Test [3] has as its system PC-3 (a prostate cancer cell line). The experiment in a line: In-vitro cell viability assay (CellTiter-Glo). As to conditions: PC-3 (Negative), Nectin-4 expression level -; 6 days of incubation. As to the method: as §1, §2
In test [4] the test system is Nectin4-HEK293 (an overexpressing cell line). Put plainly: In-vitro cell viability assay (CellTiter-Glo). The note with it: N4-HEK, Nectin-4 expression level +++; 6 days of incubation. As to the method:
as §1, §2

For test [5], the system named is SUM190PT (a breast cancer cell line). The note with it: Nectin-4 expression level +++, 6 days of incubation. As to the method: as §1, §2
Test [6] has the same test system. Put plainly: In-vitro cell viability assay (CellTiter-Glo). The note with it: Nectin-4 expression level +++, 6 days of incubation. The protocol: as §1, §2

Where two headings read alike, the source gives them in different places. Where a SMILES comes first, the peptide text is derived from it. [ ]: non-standard residue; d: D form. The star is where a group is joined. Dolaproine = CO[C@@H]([C@@H]1CCCN1)[C@@H](C)C(=O)O; Dil = CC[C@H](C)[C@H](NC)[C@@H](CC(=O)O)OC; X1 = C[C@@H](N*)[C@@H](O)c1ccccc1; NMeV = CN[C@H](C(=O)O)C(C)C

As to `CC[C@@]1(O)C(=O)OCc2c1cc1n(c2=O)Cc2c-1nc1cc3c(c4c1c2[C@@H](NC(=O)[C@@H](C)O)CC4)OCO3` [PBX-7016], the IC50 in test [1] was 1.36 nM; in test [2], 1.7 nM.

On to “PADCEV: ADC in which anti-Nectin4 mAb and MMAE are linked by an mc-vc-PAB linker”, for which the IC50 in test [3] came to 269 nM; in test [4], 0.026 nM; in test [5], 0.016 nM.

Regarding `CC[C@H](C)[C@@H]([C@@H](CC(=O)N1CCC[C@H]1[C@H](OC)[C@@H](C)C(=O)N[C@H](C)[C@@H](O)c1ccccc1)OC)N(C)C(=O)[C@@H](NC(=O)[C@@H](NC)C(C)C)C(C)C` [MMAE, Monomethyl auristatin E] (H-[NMeV]V[Dil][Dolaproine]-X1), the values for the IC50 in test [3], in test [6] and in test [2] (read-out: IC50) were 0.42 nM, 0.07 nM and 0.196 nM, respectively.

One may read the IC50 as the concentration that gives 50% inhibition.

(Values after patent EP4796129A1, “ANTI-NECTIN-4 ANTIBODY-DRUG CONJUGATE COMPRISING CAMPTOTHECIN DERIVATIVE” (Celltrion, Inc., priority 2023, dated 2025).)
